Assay results taken from article PMC12040169 (PLOS Biology, 2025).
The list shows a part of the results.

System: T1, C. trachomatis L2/434/Bu expressing GFP (CTL2-GFP)
T1 construct: L2/434/Bu GFP intracellular growth in HeLa cells
Parameters: species or system HeLa; C. trachomatis total inclusion area by high-content imaging, normalised to DMSO
Details: total inclusion area; 28.5 h, 10 µM; inhibitor
In short: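 Bulk GFP and resorufin signals were read first. Wells were then fixed, stained with Hoechst and imaged to detect GFP inclusions and host nuclei. MICs followed the previously described calculation.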

Structure (SMILES)	% of control remaining
COCC(=O)N1C[C@@H](c2ccc(F)c(F)c2)[C@@]2(CCCC(=O)N2)C1 [CBK283358]	68.5871
Oc1ccc(-c2nccnc2NCCc2ccncc2)cc1 [CBK037302]	122.475
CCn1ncc2c(C(=O)NC(C)COC)cc(-c3cccs3)nc21 (stereo not drawn) [CBK304955]	84.6022
O=C(O)c1c[nH]nc1-c1ccc(Br)cc1 [CBK266368]	126.256
CCNC(=O)CN1CCN(C(=O)C(C)(C)c2cccc(C#N)c2)CC1 [CBK306141]	59.2695
CCOC(=O)C1CCCCN1Cc1ccc(O)c(OC)c1 (stereo not drawn) [CBK261541]	87.3362
COc1cccc(C2(NC(=O)Cn3nc(C)cc3C)CCCC2)c1 [CBK283648]	81.0181
CC(=O)N1CCc2ccc(S(=O)(=O)n3ccc4c(N5CCNCC5)cccc43)cc2C1 [CBK001632C]	71.3869
COc1ccc(OCC(=O)N2CCN(C3CCC(c4ccccc4)CC3)CC2)cc1 (stereo not drawn) [CBK263459]	80.9939
Cc1ccc(S(=O)(=O)NCCOc2ccccc2)c(C)c1NS(C)(=O)=O [CBK268210]	103.279
c1ccc(C(Oc2nccnc2-c2ccc3c(c2)OCO3)c2ccccc2)cc1 [CBK106707]	88.9442
COc1cc2c(cc1-c1nccn1CC1CN(C(C)=O)CCO1)CCC2 (stereo not drawn) [CBK306850]	107.289
O=C(c1ccc(F)cc1)N1C[C@@H](c2ccsc2)[C@@H]2CN(Cc3cccc(F)c3)CC[C@@H]21 [CBK285640]	106.185
O=C(CC1NC(=O)N(C2CCCCC2)C1=O)Nc1cccc(CCc2ccncc2)c1 (stereo not drawn) [CBK285563]	114.03
Cc1cc(C)cc(NC(=O)C2CC(=O)N=C(NCc3ccccc3)N2)c1 (stereo not drawn) [CBK269054]	109.366
CC(=O)Nc1cc2nc3ccccc3nc2cc1NC(C)=O [CBK261018]	92.1486
Cc1nnc(SCc2nc3ccccc3c(=O)[nH]2)[nH]1 [CBK267830]	84.8886
COC(=O)CN1C(c2ccccc2O)Nc2ccc(Br)cc2C1c1ccccc1 (stereo not drawn) [CBK263133]	98.0185
O=C(C1CCC1)N1C2CCC1Cn1c(nc3ccccc3c1=O)C2 (stereo not drawn) [CBK284453]	99.6904
COc1ccc(CC(=O)N2CCCC(c3nccnc3-c3cccc(C)c3)C2)cc1 (stereo not drawn) [CBK286137]	81.9465
COc1ccc(NS(=O)(=O)c2ccc(C)cc2)cn1 [CBK010484]	49.51

Structure (SMILES)	% of control remaining
Clc1ccc(CN2CCCN(c3nccc(OCC4COc5ccccc5O4)n3)CC2)cc1 (stereo not drawn) [CBK084038]	58.1016
COc1cc(C(=O)NN)cc(OC)n1 [CBK012275]	71.4449
CCOC(=O)CC1C(=O)NCCN1C/C=C/c1ccccc1 (stereo not drawn) [CBK269922]	104.981
O=C(NCC1Cc2ccccc2O1)c1ccc(Br)cc1Cl (stereo not drawn) [CBK298323]	85.364
CCn1cc(S(=O)(=O)NCc2ccc3[nH]c4c(c3c2)CCCC4)cn1 [CBK307225]	59.2631
NC(=O)c1ccc(NC(=O)N2CCN(CCN3CCOCC3)CC2)cc1 [CBK155831]	87.909
O=C1CCCN1CCCNC(=O)N1CCCC(CO)C1 (stereo not drawn) [CBK156063]	102.449
O=C(C1=Cc2ccccc2OC1)N1CCC(c2ccncc2)CC1 [CBK282339]	81.7053
CC(C)C[C@@H]1N[C@H](C(=O)NCC2CCOCC2)Cc2c[nH]c3cccc1c23 [CBK289427]	89.0183
O=C(O)c1cccc(-c2cnc(NCC3CC3)c(C(=O)NCC(F)(F)F)c2)c1 [CBK106420]	79.6649
FC(F)(F)c1nc2ccccc2nc1SCCOc1ccccc1 [CBK103726]	108.754
Cc1cc(C)c(C)c(S(=O)(=O)N(CCO)CCO)c1C [CBK269082]	50.9308
NC(=O)c1cccnc1-c1nc2ccccc2s1 [CBK287930]	103.057
COc1cccc(C2(NC(=O)CCn3nccc3C)CCCC2)c1 [CBK283601]	81.4649
Cn1nccc1CCC(=O)N1CC[C@H]2NC(=O)c3ccccc3OCCCCC[C@H]2C1 [CBK292028]	109.868
CS(=O)(=O)N(Cc1ccco1)Cc1cc2ccccc2nc1O [CBK269434]	87.2819
Nc1ccc2c(-c3cc(F)cc(F)c3)ccnc2n1 [CBK067638]	93.7443
Clc1ccc(OC/C=C2\Oc3ccc(Cl)cc3C2N2CCOCC2)c(Cl)c1 (stereo not drawn) [CBK262753]	123.589
Cc1c(CN(C)CC(=O)Nc2cccc(C(F)(F)F)c2)cnn1C [CBK304341]	27.2596
O=C(Nc1ncn(CC(=O)N2CCCCCC2)n1)c1cccs1 [CBK304953]	48.7689
NC(=O)C1CCN(C(=O)c2cc3c(=O)n4ccccc4nc3s2)CC1 [CBK296938]	73.7603

Structure (SMILES)	% of control remaining
O=C1NC=CCC12CCCN(S(=O)(=O)c1ccc(F)cc1)C2 (stereo not drawn) [CBK284797]	92.4134
O=C(Nc1cccnc1)C1CCN(S(=O)(=O)c2ccc(Oc3ccccc3)cc2)CC1 [CBK269621]	94.9437
O=C(/C=C/c1cccc([N+](=O)[O-])c1)NC(=S)Nc1ccc(-c2nc3ccccc3[nH]2)cc1 [CBK264376]	80.952
Cc1ccc(NC(=O)CCc2cccnc2)c(C)n1 [CBK200386]	85.5082
CCc1nc2ccc(C(=O)N(C)CCN(C)C)cn2c1N(CC)C(=O)NCCc1ccccc1 [CBK147036]	107.268
CCN1CCN(Cc2c[nH]c3ccccc23)CC1 [CBK261540]	90.6924
CC(C)N1C[C@@H](C(=O)NC(C)(C)C)[C@@]2(Cc3ccccc3C(=O)N2)C1 [CBK285295]	73.229
CC(C)(C)C(=O)Nc1ccc(-c2ccc(NC(=O)C(C)(C)C)c(C(=O)O)c2)cc1C(=O)O [CBK261392]	96.2294
NC1CCN(C(=O)Cn2ccc3ccnc(-c4cccs4)c32)CC1 [CBK284750]	99.8829
CCCCOC(=O)c1c(N)n(CCOC)c2nc3ccccc3nc12 [CBK264961]	107.863
CN(C)c1ccc(CN(CCO)CCO)cc1 [CBK261921]	69.3243
CCCCc1ccc(-c2cnc(N)c3ncccc23)cc1 [CBK067588]	91.9903
COCCNc1nc2c(c(N3CCCC(CO)C3)n1)CCNCC2 (stereo not drawn) [CBK307242]	62.9155
Cn1nc2c(c1O)CCCC2 [CBK089897]	94.9412
CCc1cc2c(=O)c(-c3cnn(-c4ccccc4)c3)c(C(F)(F)F)oc2c(CN2CCCCC2)c1O [CBK264458]	104.763
CCOc1cc(OCC)nc(Oc2ccc(C(=O)OC)cc2)n1 [CBK107733]	103.677
COCCNC(=O)c1ccc(-c2ccc3c(c2)OCO3)nc1N(C)C [CBK106050]	88.9681
Cc1cc(=O)n2c(C(=O)Nc3ccc(C(=O)O)cc3)c(C(=O)Nc3cccc(C)c3C)sc2n1 [CBK297547]	102.003
COc1cccc(N2CCN(C(C(=O)O)c3cn(C)c4cc(C(=O)O)ccc34)CC2)c1 (stereo not drawn) [CBK286701]	110.917
COc1cc(Br)c(-c2nnn[nH]2)cc1OC [CBK270093]	86.5719
O=S(=O)(NCc1ccc2c(c1)OCO2)c1ccc2c(c1)oc1ccccc12 [CBK268308]	101.359

Structure (SMILES)	% of control remaining
Brc1cn2ccnc2c(N2CCCC2)n1 [CBK085449]	98.7513
C[S+]([O-])CCNC(=O)c1cc2c(Cl)cccc2[nH]1 (stereo not drawn) [CBK283304]	108.892
COc1ncc(-c2nccnc2NCC(C)O)c(OC)n1 (stereo not drawn) [CBK036970]	125.254
Cn1c2ccccc2c2nnc(NCCCCO)nc21 [CBK023366]	97.7122
O=C(Nc1ccccc1O)c1cc(S(=O)(=O)N2CCCCCC2)ccc1Cl [CBK264554]	101.821
CC(=O)c1ccc(-c2nccnc2N[C@@H](CO)C(C)C)s1 [CBK037404]	99.1705
COCc1c(Br)c(C)nc(OCC(=O)O)c1C#N [CBK266532]	77.3976
C[C@]12CN(CC3CC=CCC3)C[C@H]1C(=O)Nc1ccccc1C(=O)N2 (stereo partly drawn) [CBK284738]	50.9619
CCn1cc(Cl)c(C(=O)NC2CCN(c3cnccn3)CC2)n1 [CBK306922]	78.919
Cc1ccc(Cl)cc1NC(=O)c1cc([N+](=O)[O-])ccc1NCCN1C(=O)c2ccccc2C1=O [CBK268501]	105.162
CC(Oc1cccc(C#N)c1)C(=O)N1CCCC1C(=O)NCC(F)(F)F (stereo not drawn) [CBK305435]	55.4051
COc1ccccc1NC(=O)CSCc1nc2ccccc2[nH]1 [CBK268385]	126.294
Cn1ccnc1C1(O)C2CCCC1CN(Cc1ccc(F)c(F)c1)C2 (stereo not drawn) [CBK285189]	88.4456
CCn1c(=O)sc2cc(Br)ccc21 [CBK026526]	59.0377
O=C(O)CCC(=O)N1CCN(C(=O)c2ccco2)CC1 [CBK286533]	41.6203
CN(C)C(=O)CO[C@@H]1CO[C@H]2[C@@H]1OC[C@@H]2Nc1nccc(-c2cccs2)n1 [CBK289515]	77.0984
Cc1ccc(-c2noc(CN3CCN(c4ccccc4)CC3)n2)cc1 [CBK265924]	136.356
NS(=O)(=O)c1ccc(NC(=S)NC(=O)c2cccc3c(Cl)cccc23)cc1 [CBK268814]	94.6386
